# The supplement of paper PMC12217912
# This is one part of the list. The full chains were built here from the parent and the listed change. Inactive controls read about 0.05.
# B1: TEV protease; numbered along this chain (parent)
# chain: MGESLFKGPRDYNPISSSICHLTNESDGHTTSLYGIGFGPFIITNKHLFRRNNGTLVVQSLHGVFKVKDTTTLQQHLVDGRDMIIIRMPKDFPPFPQKLKFREPQREERICLVTTNFQTKSMSSMVSDTSCTFPSGDGIFWKHWIQTKDGQCGSPLVSTRDGFIVGIHSASNFTNTNNYFTSVPKNFMELLTNQEAQQWVSGWRLNADSVLWGGHKVFMVKPEEPFQPVKEATQL
# Variants of: B1
# Assay: raw area under fraction-flipped curve 0-4 h after induction (AUC4h, not background-subtracted), DNA-recorder readout of cleavage of the substrate (dimensionless); higher = more cleavage of the substrate by the protease variant
# Conditions: temperature: 34 °C; time window: 0-4 h after rhamnose induction
# Description: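 In vivo DNA recorder in E. coli TOP10(DE3) ΔrhaA at 34 °C. Each TEVp single-site mutant (parent TEVp 0) is paired with a single-site variant of the 7-mer TEVs (canonical ENLYFQ|S). The substrate sits between flexible linkers in a Bxb1-sfGFP-TEVs-SsrA fusion, so cleavage stabilises Bxb1 and speeds flipping of a recombination array, read by NGS. The value is the raw area under the fraction-flipped curve over 0-4 h after rhamnose induction (AUC4h), with ≥20 reads per time point. It is not background-subtracted; inactive controls average about 0.047.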
# 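Further: Bxb1 expression induced with 0.2% (w/v) L-rhamnose at OD600 near 0.5, cultures sampled hourly, flipped fraction per protease–substrate barcode pair counted by paired-end Illumina sequencing.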
Variant,area with substrate ENLYFAS,area with substrate ENLYFCS,area with substrate ENLYFDS,area with substrate ENLYFES,area with substrate ENLYFFS,area with substrate ENLYFGS,area with substrate ENLYFIS,area with substrate ENLYFKS,area with substrate ENLYFLS,area with substrate ENLYFMS,area with substrate ENLYFNS,area with substrate ENLYFPS,area with substrate ENLYFRS,area with substrate ENLYFSS,area with substrate ENLYFTS,area with substrate ENLYFVS,area with substrate ENLYFWS,area with substrate ENLYFYS,area with substrate ENLYFHS
I19P,0.0406,0.0396,0.044,0.0517,0.0514,0.0472,0.0414,0.0532,0.0446,0.0432,0.0342,0.0465,0.0549,0.0487,0.0503,0.0483,0.045,0.0411,
D11V,0.0645,,0.0462,0.0673,0.0746,0.0625,0.0542,0.0705,,0.062,,0.0651,0.0665,0.0533,0.0654,0.0541,0.056,,0.0577
S17A,0.0518,0.0611,,0.0673,0.0662,0.0498,0.0416,,0.0597,0.0591,0.0955,0.0579,0.0603,0.0702,0.0569,0.0675,0.0414,0.0629,
K7D,0.0659,0.0658,,0.073,,0.0555,0.0559,0.0613,0.062,0.0687,0.0939,0.0508,0.0648,,0.0588,,,,0.0447
G28D,0.07,0.0607,0.067,0.0578,0.0657,0.0589,0.0518,0.0506,0.0604,0.0657,0.0587,0.0564,0.0542,0.0616,,0.0619,0.0517,0.0455,0.0555
H21C,0.0446,0.0857,0.0666,0.0697,0.0626,,0.0553,,,0.0629,0.0548,,0.0739,0.057,,0.0846,,0.0562,0.0616
H21Q,0.0458,0.0547,,0.062,0.0677,0.0367,0.0564,0.0612,0.0571,0.065,0.0692,0.0568,0.0578,0.0617,0.0681,0.0584,0.0502,,0.0525
H21A,0.0501,0.0597,0.0483,0.0675,0.0728,0.0567,0.0578,0.0528,0.0538,0.0663,0.08,0.0585,0.0647,0.0759,0.0633,0.0626,0.0578,0.0507,
T23C,0.0499,0.0494,,0.0481,0.0707,0.0629,0.0539,0.0745,0.0592,0.0764,0.0636,0.0663,0.0632,0.0331,0.0631,,0.0465,0.0642,
T23L,0.0652,0.0678,0.0531,,0.0745,,0.0536,0.0606,,0.0677,0.0605,0.0634,0.0558,,0.0582,,,0.0692,
T23Y,0.13,0.0654,0.0682,,0.0769,,0.0556,,,0.0644,0.0545,0.0583,,,0.0522,0.053,0.0552,0.0546,
